The values below come from the RNAGym collection of RNA variant scans (doi:10.1093/nar/gkz1192).

Read counts are not given, so values of variants with three or more changes are uncertain.

B1: CPEB3 Ribozyme (parent)
chain: UAACAGGGGGCCACAGCAGAAGCGUUCACGUCGCAGCCCCUGUCAGAUUCUGGUGAAUCUGCGAAUUCUGCUGUAUAUCUC

The variants in this series derive from B1. Briefly: self-cleavage, relative activity (ratio to wild type); higher = more cleavage; in vitro, sequencing. An outline of the steps:
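For each CPEB3 ribozyme variant, relative activity is its cleaved/total read fraction divided by the unmutated ribozyme's. Barcoded error-prone PCR libraries were transcribed by T7 RNA polymerase (5 hours, 37°C) and held in DNase I for 15 min before an EDTA stop, with cleavage occurring throughout. Template-switching reverse transcription and Illumina sequencing were used to read the RNAs. A 5-read minimum applied, and results are the mean of three batches.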
Take UAACAGGGGGCCACAGCAGAAGCGUUCAGGUCGCAGCCCCUGUCGGAUUCUGGUGAAUCUGCGAAUUCUGCUGUAUACCUC [C29G A45G U78C]: the self-cleavage worked out at 0.15.

In the case of UAACAGGGGGCCACAGCAGAAGCGUUCAAGUCGCAGCCUCAGUCAGAUUCUGGUGAAUCUGCGAAUUCUGCUGUAUAUCCC [C29A C39U U41A U80C], the self-cleavage turned out to be 0.25.

As to UAACAGGGGGCCACAGCAGAAGCGUUCAGGUCGCAGCCCCUGUCAGAUUCUGGUGUAUCGGCGAAUUCUGCUGUAUAUCCC [C29G A56U U60G U80C], the self-cleavage is 0.11.

Take UAACAGGGGGCCACAGCAGAAGCGUUCUCGUCGCAGCCCCUGACAGAUUCUGGUGAAUCUUCGAAUUCUGCUGUAUUUCUC [A28U U43A G61U A77U]: the self-cleavage turned out to be 0.43.

Regarding UAACAGGGGGCCACAGCAGAAGCGUUCUCGUCGCAGCCCCUGUCAAAUUCUGGUGAAUCUGCGAAAUUCGCUGCAUAUCUC [A28U G46A U66A C68U U69C U74C], the self-cleavage was 0.1.

Consider UAACAGGGGGCCACAGCAGAAGCGUUCUCGUCGCAGCCCCAGUCAGAUUCUGGUGAAUCUGCGAGUUCUGCUGUAUAUCUC [A28U U41A A65G], for which the self-cleavage came to 0.07.

On to UAACAGGGGGCCACAGCAGAAGCGUUCUCGUCGCAGCCCCUGACAGAUUCCAGUGAAUCUGCGAAUUCAGCUGUAUAUCUC [A28U U43A U51C G52A U69A], for which the self-cleavage came out at 0.41.

Take UAACAGGGGGCCACAGCAGAAGCGUUCUCGACGCAGCCCCUGUCAGAUUCUGGUGAAUCUGCGAAUUCUGCUGUAGAUCUC [A28U U31A U76G]: the self-cleavage was found to be 0.26.

Consider UAACAGGGGGCCACAGCAGAAGCGUUCAAGUCGCAGCCCCUGUCAGACUGUGGUGAAUCUGCGGAUUCUGCUGUAUCUCUC [C29A U48C C50G A64G A77C], for which the self-cleavage stood at 0.06.

As for UAACAGGGGGCCACAGCAGAAGCGUUCAUGUCGCGGCCCCUGUCUGAUUCUGGUGAAUCUGCGAAUUCCGCUGUAUAUCUC [C29U A35G A45U U69C], the self-cleavage came to 0.23.

For UAACAGGGGGCCACAGCAGAAGCGUUCAAGUCGCGGCCCCUGUCGGAUUCUGGUGAAUCUGCGAAUUCUGCUGUAUAUCUC [C29A A35G A45G], the self-cleavage was 0.96.

Turning to UAACAGGGGGCCACAGCAGAAGCGUUCAGGUCGCAGCCCCUGUCGGAUUCUGGAGAAUCUGCGAAUUCUGCUGUAUAUCUC [C29G A45G U54A], the self-cleavage was determined as 0.1.

UAACAGGGGGCCACAGCAGAAGCGUUCAGGUCGCAGCCCCUGUCAGAUCCUGGCGAAUCUGCGAAUUCUGCUGUAUAUCUC [C29G U49C U54C]: the self-cleavage is 0.23.

UAACAGGGGGCCACAGCAGAAGCGUUCAAGUCGCAGCCCCUGUCGGGUUCUAGUGAAUCUGCGAAUUCUGCUGUAUAUCUC [C29A A45G A47G G52A]: the self-cleavage was determined as 0.22.

With UAACAGGGGGCCACAGCAGAAGCGUUCUCGUCGCAGCCCCUGGCAUAUUCAGGUGAGUCUGCGAAUUCUGCAGUAUAUCUC [A28U U43G G46U U51A A57G U72A], the self-cleavage came to 0.15.

In the case of UAACAGGGGGCCACAGCAGAAGCGUUCAGGUCGGAGCCCCUGUCAGGUUCUGGUGAAUCAGCGAAUUCUACUGUAUAUCUC [C29G C34G A47G U60A G70A], the self-cleavage is 0.1.

Take UAACAGGGGGCCACAGCAGAAGCGUUCAAGUCGCAGCCUCUGUCAGAUUCUGGUGAACCUGCGAAUUCUGCUGUAUAUCUC [C29A C39U U58C]: the self-cleavage turned out to be 0.21.

As to UAACAGGGGGCCACAGCAGAAGCGUUCAAGUCGCAGCCCCGGUCAGGUUCUGGUGAAUCUGCGAAUUCUGCUGAAUAUCUC [C29A U41G A47G U74A], the self-cleavage stood at 0.13.

For the variant UAACAGGGGGCCACAGCAGAAGCGUUCUCGUCGCAGCCCCUGUCAGACUCUGGUGAAUCUGCGAAUACUGCUGUAUAUAUC [A28U U48C U67A C79A], the self-cleavage amounted to 0.11.

Take UAACAGGGGGCCACAGCAGAAGCGUUCUCGUCGCAGCCCCUGUCAGAUCCUGGCGAAUCUGCGAAUUCUGCAGUAUAUCUC [A28U U49C U54C U72A]: the self-cleavage worked out at 0.11.

As for UAACAGGGGGCCACAGCAGAAGCGUUCAAGUCGCAGCCCCUGUCAGAUACUGGUGAAUCUGCGAAUUCUGCUGUAUACCUC [C29A U49A U78C], the self-cleavage worked out at 0.16.

Turning to UAACAGGGGGCCACAGCAGAAGCGUUCUCGGCGCGGCCCCUGUCAGAUUCUGGUGAAUCUGCGAAUUCAGCUGCAUACCUC [A28U U31G A35G U69A U74C U78C], the self-cleavage worked out at 0.54.

Regarding UAACAGGGGGCCACAGCAGAAGCGUUCUCGUCGCAGCCCCUGUCAGAUCCUGGUCAAUCUGCGAGUUCGGCUGUAUACCGC [A28U U49C G55C A65G U69G U78C U80G], the self-cleavage was 0.13.

As to UAACAGGGGGCCACAGCAGAAGCGUUCUCGUCGCAGCCCCUGUCAGAUUCUGGUGAAACUGCGAAUUCUUCUGUAUAUCUC [A28U U58A G70U], the self-cleavage is 0.14.

Regarding UAACAGGGGGCCACAGCAGAAGCGUUCAGGUCGCAGCCCCUGUCAGAUCCUGGUGAAUCUGCGAAUUCCGCUGUAUAUCUC [C29G U49C U69C], the self-cleavage was 0.09.

Regarding UAACAGGGGGCCACAGCAGAAGCGUUCAUGUCGCGGCCCCUGUCAGAUUCUGGUGAAUCUGCCAAUUCUGCUGUAUAUCUC [C29U A35G G63C], the self-cleavage is 1.21.

In the case of UAACAGGGGGCCACAGCAGAAGCGUUCAAGUCGCAGCCCCUGUCAGAUCCUGGCGAAUCUGCGAAUUCUGCUGUAUAUCUC [C29A U49C U54C], the self-cleavage amounted to 0.13.

As to UAACAGGGGGCCACAGCAGAAGCGUUCAGGUCGCAGCCCCUGUCAGAUUCUGGUGAAUCUGCGGACUCUGCUGUAAAUCUC [C29G A64G U66C U76A], the self-cleavage came to 0.16.

As to UAACAGGGGGCCACAGCAGAAGCGUUCUCGUCGCAGCCCCUAUCAGAUUCUGGUGAAUCUGCGAAUUCUGCUGUAUAUCCC [A28U G42A U80C], the self-cleavage was 0.41.

On to UAACAGGGGGCCACAGCAGAAGCGUUCUCGUCGCAGCCCCUGCCAGAUCCUGGUGAACCUGCGAAUUCUGCAGUAUAUCUC [A28U U43C U49C U58C U72A], for which the self-cleavage was 0.17.

Take UAACAGGGGGCCACAGCAGAAGCGUUCUCGUCGCAGCCCCUGUCAGAUCCUGAUGAAUCUGCGAAUUCUGCUGUAUAUCUC [A28U U49C G53A]: the self-cleavage was 0.23.

Turning to UAACAGGGGGCCACAGCAGAAGCGUUCUCGUCGCAGCCCCUGCCAGACUCUGGCGAAUCUGCGAAUUCUGCUGUAUAUCCC [A28U U43C U48C U54C U80C], the self-cleavage is 0.1.

Regarding UAACAGGGGGCCACAGCAGAAGCGUUCUCGACGCAGCCCCCGUCAGAUUCUGGUGAAUCUGCGAAUUCUGCUGUAUAUCUC [A28U U31A U41C], the self-cleavage came out at 0.24.

Consider UAACAGGGGGCCACAGCAGAAGCGUUCAUGUCGCAGCCCCUGUCCGGUUCUGGUGAAUCUGCGAAUUCUGCUGUAUAUCUC [C29U A45C A47G], for which the self-cleavage amounted to 0.18.
